The values below come from PubChem BioAssay AID1745853 (National Center for Advancing Translational Sciences (NCATS), 2022).

What all share (assay): Primary Screen for Target Class Profiling of Small Molecule Inhibitors of Methyltransferases
For assay [1], the target named is Glycine N-methyltransferase (Homo sapiens) (UniProt Q14749). As to conditions: purified enzyme, MTase-Glo SAH luminescence; measured here: GNMT inhibition; at 40 µM; stronger effect = lower value. Put shortly:
(§1)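 Each enzyme was reacted with SAM and its substrate, with compounds tested once at 40 uM; SAH formed was read by MTase-Glo luminescence.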

For assay [2], the target named is Guanidinoacetate N-methyltransferase (Homo sapiens) (UniProt Q14353). As to conditions: purified enzyme, MTase-Glo SAH luminescence; measured here: GAMT inhibition; at 40 µM; stronger effect = lower value. The gist of the method: as §1
In assay [3] the target is Histamine N-methyltransferase (Homo sapiens) (UniProt P50135). As to conditions: purified enzyme, MTase-Glo SAH luminescence; measured here: HNMT inhibition; at 40 µM; stronger effect = lower value. Put shortly: as §1
Assay [4] concerns the target Nicotinamide N-methyltransferase (Homo sapiens) (UniProt P40261). The conditions noted are these: purified enzyme, MTase-Glo SAH luminescence; measured here: NNMT inhibition; at 40 µM; stronger effect = lower value. Put shortly:
as §1

Assay [5] deals with Phenylethanolamine N-methyltransferase (Homo sapiens) (UniProt P11086). The conditions noted are these: purified enzyme, MTase-Glo SAH luminescence; measured here: PNMT inhibition; at 40 µM; stronger effect = lower value. The gist of the method:
as §1

The list shows a part of the results. Shown are side measurements of this screen, not its main read-out; they come without a call.
% is scaled to controls: 0 for no effect and ±100 for the full control effect.

As for `C=C1C(=O)OC2/C=C(\C)CC/C=C(\C(=O)O)CC/C=C(\C)CCC12` (stereo not given), the activity change, negative = inhibition in assay [1] is 1.39%; in assay [2], 3.87%; in assay [3], 11.3%; in assay [4] it was -11.7%; in assay [5], 5.15%.
For `CCn1cc(CN(C)CC(=O)N2CCCCCC2)ccc1=O` the same measures were -2.2%, -0.662%, 0.1%, -0.398% and 2.36%.
The matching figures for `O=C(C1CCC1)N1CCC[C@H]1c1nc(-c2ccc(F)cc2)n[nH]1`: 3.23%, -2.04%, 0.745%, -8.07% and 10.3%.
Consider `Cc1ccc(S(=O)(=O)NCCn2c(CCc3ccccc3)nc3ccccc32)c(C)c1`, for which the activity change, negative = inhibition in assay [1] was -5.78%; in assay [2], 0%; in assay [3], 0.577%; in assay [4] it was -11%; in assay [5], 2.53%.
Take `COc1ccccc1-c1nc2nccc(-c3cc(OC)c(OC)c(OC)c3)n2n1`: the activity change, negative = inhibition in assay [1] was -14%; in assay [2], -7.44%; in assay [3], -19.1%; in assay [4], -10.6%; in assay [5], -2.9%.
In the case of `COc1cc(/C=C/C(=O)OC[C@H]2O[C@@H](OC3CC(C)=C(C(=O)O)C(C)(C)C3)[C@H](O)[C@@H](O)[C@@H]2O)cc(OC)c1O` (stereo not given in full), the activity change, negative = inhibition in assay [1] is 0.684%; in assay [2] it was 5.84%; in assay [3] it was 8.76%; in assay [4], -6.48%; in assay [5], 3.04%.
Regarding `CCCCCCCCCCCCCCCCCC(=O)OC(CC(=O)O)C[N+](C)(C)C` (stereo not given), the activity change, negative = inhibition in assay [1] is -7.72%; in assay [2], 4.95%; in assay [3], 1.33%; in assay [4] it was -5.66%; in assay [5], 0.875%.
The matching figures for `CCN(CC)c1nc2c(-c3cccc(F)c3)nnn2c2ccc(Cl)cc12`: 4.37%, 4.07%, 4.01%, 10.9% and -0.519%.
For `CN(CC(=O)Nc1cccc(F)c1)S(=O)(=O)c1ccc2[nH]c3c(c2c1)CCCC3` the same measures were -1.04%, 4.42%, 5.39%, -0.38% and 1.89%.
For `Cc1cc(C)cc(NC(=O)Cn2nc3n(C(C)C)c(=O)c4ccc(C(=O)NC(C)C)cc4n3c2=O)c1` the same measures were 4.8%, 1.16%, 6.43%, -1.21% and 4.27%.
For the compound `Cc1ccc2c(c1)c(-n1cccc1)c1n2CC(C)(C(=O)NC2CCC(C)CC2)N(Cc2ccco2)C1=O` (stereo not given), the activity change, negative = inhibition is -7.24% in assay [1]; -1.74% in assay [2]; -2.73% in assay [3]; -5.19% in assay [4]; -5.07% in assay [5].
On to `CN(Cc1ccccc1)Cc1nnc(C(=O)N2CCC[C@@H]2c2cccc(F)c2)n1-c1ccccc1`, for which the activity change, negative = inhibition in assay [1] was -0.469%; in assay [2] it was 2.55%; in assay [3], 1.94%; in assay [4] it was -8.32%; in assay [5] it was -0.945%.
For `Cc1nn(C)c(C)c1CCC(=O)NCCc1ncc(C)n1Cc1ccc(F)cc1` the same measures were -2.35%, -0.174%, -22.4%, -9.13% and 11.6%.
As for `CC(C)CCn1c(=O)c2ccccc2n2c(CCC(=O)N3CCN(Cc4ccccc4)CC3)nnc12`, the activity change, negative = inhibition in assay [1] was -6.22%; in assay [2], 0.985%; in assay [3], -1.2%; in assay [4], -42.1%; in assay [5], 1.68%.
In the case of `CCCn1c(=O)c2ccc(C(=O)NC3CCCC3)cc2n2c(=O)n(CC(=O)Nc3cccc(F)c3)nc12`, the activity change, negative = inhibition in assay [1] is 1.39%; in assay [2], 4.88%; in assay [3] it was 2.17%; in assay [4] it was -0.173%; in assay [5], 2.69%.
On to `CC1(C(=O)NC2CCCCC2)Cn2c(cc3occc32)C(=O)N1Cc1ccco1` (stereo not given), for which the activity change, negative = inhibition in assay [1] is -5.85%; in assay [2], 3.95%; in assay [3], 0.947%; in assay [4] it was 1.05%; in assay [5], -0.813%.
The matching figures for `CC(c1n[nH]c(=O)n1CCC(=O)O)n1cccn1` (stereo not given): -2.41%, 3.81%, 1.54%, -0.769% and 18%.
With `CCc1ccc(C(=O)N2CCC([C@@H]3CNC[C@H]3CO)CC2)cc1`, the activity change, negative = inhibition in assay [1] was -1%; in assay [2], 0.643%; in assay [3] it was -3.23%; in assay [4], 3.46%; in assay [5], -2.49%.
Regarding `c1ccc(CCCN2CC[C@H](c3nc4ccccc4s3)C2)cc1`, the activity change, negative = inhibition in assay [1] is -4.97%; in assay [2], -0.922%; in assay [3], -8.08%; in assay [4] it was -5.33%; in assay [5] it was 7.35%.
For the compound `O=C(NC1CCCCC1)N1C2CCC1CN(c1ccc(C(F)(F)F)cc1)C2`, the activity change, negative = inhibition in assay [1] is 0.763%; in assay [2], -0.543%; in assay [3], 2.97%; in assay [4], -2.15%; in assay [5], -4.16%.
With `COc1cccc(N2C(=O)c3cc4ccccc4n3CC2(C)C(=O)NCc2ccccc2OC)c1` (stereo not given), the activity change, negative = inhibition in assay [1] is -5.83%; in assay [2], 2.92%; in assay [3], -4.52%; in assay [4], -10.5%; in assay [5], -8.4%.
For `Cc1ccc(Cl)cc1NS(=O)(=O)c1ccc2c(c1)n(C)c(=O)n2C` the same measures were 4.48%, 0%, 4.4%, -1% and 5.34%.
For `CCCN1C(=O)c2c(C(=O)NCc3cccc(OC)c3)ncn2CC1(C)C(=O)NCc1ccc(OC)cc1` (stereo not given), the activity change, negative = inhibition was -3.18% in assay [1]; 2.48% in assay [2]; 0.369% in assay [3]; -1.24% in assay [4]; 0.991% in assay [5].
With `Cc1c(Cl)cccc1NS(=O)(=O)c1ccc2c(c1)NC(=O)CC(=O)N2`, the activity change, negative = inhibition in assay [1] was -3.98%; in assay [2], 3.78%; in assay [3], 6.52%; in assay [4] it was 3.04%; in assay [5], -3.27%.
For `Cc1nc(NC(C)c2nc(-c3cccnc3)no2)c2cccnc2n1` (stereo not given) the same measures were -5.69%, -7.21%, -4.12%, -8.1% and -8.51%.
As for `CCOC(=O)c1cc2n(n1)CC(C)(C(=O)NC1CCCCC1)N(c1ccc(C)c(Cl)c1)C2=O` (stereo not given), the activity change, negative = inhibition was -6.07% in assay [1]; -0.298% in assay [2]; -9.27% in assay [3]; -8.8% in assay [4]; -0.603% in assay [5].
`Cc1cccc(N2C(=O)c3cc4occc4n3CC2(C)C(=O)NC2CCCCCC2)c1C` (stereo not given): the activity change, negative = inhibition in assay [1] was -3.07%; in assay [2] it was 0%; in assay [3] it was 5.09%; in assay [4], 6.78%; in assay [5], 1.24%.
The matching figures for `COc1cccc(CN2C(=O)c3cc4sccc4n3CC2(C)C(=O)NC2CCCCC2)c1` (stereo not given): 2.96%, 0%, 0.051%, -1.14% and 0.042%.
For `CC(=O)NCC1CN(C(=O)NCc2ccc(OC(F)(F)F)cc2)CC12CCCCC2` (stereo not given) the same measures were -0.491%, -0.77%, 2.92%, -9.28% and 3.15%.
